Reference: ChEMBL document CHEMBL4888484, “Replenishing the malaria drug discovery pipeline: Screening and hit evaluation of the MMV Hit Generation Library 1 (HGL1) against asexual blood stage Plasmodium falciparum ,using a nano luciferase reporter read-out” (2022)
The campaign covered roughly 4,800 compounds. About 410 (8.5%) showed an effect of 50% or more. This is one part of the list.

What follows are compounds tested on Plasmodium falciparum (assay: Confirmatory screen in NF54 pLDH assay, in single point, at 2uM, 72h). Settings: timepoint 72 hour.
Type: functional, Erythrocyte

| SMILES | % Inhibition [%] |
| --- | --- |
| C[C@@H]1CN(C[C@@H]2CN(CCOCc3ccccc3)C[C@@H]2CO)C[C@H](C)O1 | -4 |
| CC1CC1NC(=O)C(NS(C)(=O)=O)C(C)(C)C (centres undefined) | 11 |
| Nc1c(-c2ccccc2)nsc1C(=O)NCc1ccccc1 | 5 |
| Cc1cc(C(=O)N[C@@H](C)CO)c(C)n1-c1nccs1 | -4 |
| CC(=O)OCc1c(C)n(C)c(=O)n(C)c1=O | -5 |
| Cn1nc(C(F)(F)F)cc1B1OC(C)(C)C(C)(C)O1 | 12 |
| O=C(CN1CCCCCC1)Nc1ccc(OCc2ccccc2)cc1 | -3 |
| Cc1c(NC(=O)CCc2ccsc2)nnn1Cc1ccccc1F | -4 |
| CC(C)c1nc(NC(=O)c2c[nH]nc2-c2c(F)cccc2F)n(C)n1 | 9 |
| CCCC(CCC)C(=O)Nc1ccc(O)cc1C(=O)O | 14 |
| CCn1cc(NC(=O)CCn2ncc3c(Cl)cccc32)cn1 | -1 |
| O=C1OC2(c3ccccc31)C(c1ccccc1)CC(=O)N2Cc1ccccc1 (centres undefined) | -21 |
| CCOC(=O)NC(c1ccccc1F)C1CCCCC1=O (centres undefined) | 1 |
| CCc1cc(C(=O)N2CCCCCC2)c2c(C3CC3)nn(-c3ccc(F)cc3)c2n1 | 5 |
| Cn1ccnc1[C@@H](NC(=O)c1ccnn1C(F)F)C(C)(C)CO | 10 |
| O=C(Cc1ccc(Cl)cn1)Nc1ccnn1[C@H]1CCCc2ccccc21 | -12 |
| CCc1ccc(C2=C[C@@H](c3cccc(OC)c3)n3ncc(C(=O)Nc4ccc(C)cc4)c3N2)cc1 | 70 |
| Cc1cc(C)n2c(=O)c3ccccc3nc2c1C#N | -21 |
| CC1CCCC(N2C(=O)c3ccccc3C2NCc2ccccc2)C1C (centres undefined) | 14 |
| CC[C@H]1C(=O)NCCN1C(=O)c1cc(C)n[nH]1 | 13 |
| COc1cccc(-c2noc3nc(C)cc(C(=O)NCCCn4cccn4)c23)c1 | -2 |
| O=C1CCC(=O)N1c1cnn(Cc2ccccc2)c1 | 8 |
| Oc1cc(OCc2ccccc2F)ccc1-c1[nH]ncc1-c1ccccc1 | 72 |
| CCOc1c(CNC(C)(C)C)cccc1OC | -3 |
| CC1=NN(c2ccccc2)C(=O)[C@H]1N1C(=O)c2ccccc2C1=O | 5 |
| O=C(Nc1nccs1)C1C2CCC(O2)C1C(F)(F)F (centres undefined) | 9 |

| SMILES | % Inhibition [%] |
| --- | --- |
| CC1CCN(Cc2ccc(CNCc3c[nH]nc3-c3ccc(F)cc3)cc2)CC1 | 50 |
| Cc1cccc(-c2nc(C[N+]3(Cc4nc(-c5cccc(C)c5)oc4C)CCCC3)c(C)o2)c1 | 55 |
| O=C(O)c1ccc(-c2n[nH]c(=O)c3c2CCCC3)cc1 | -6 |
| Oc1ccc([C@@H](c2cn(-c3nc(-c4ccc(Cl)cc4)cs3)nc2-c2ccccc2)c2c(-c3ccccc3)nn(-c3nc(-c4ccc(Cl)cc4)cs3)c2O)cc1 | 13 |
| CC(C)Cc1cc(C(=O)N2CCc3c(C#N)cccc32)cc(O)n1 | -4 |
| COc1ccc(-c2cc3ncc(C(=O)c4cc(Cl)ccc4O)cn3n2)cc1 | 78 |
| CCN(C)C1(CNC(=O)c2ccc(-c3cc(F)ccc3O)cc2)CCCC1 | 11 |
| CCn1nccc1CN(C)C(=O)c1cc(C)c(C)s1 | 9 |
| CC1=C(C(=O)Nc2cccc(Cl)c2)[C@H](c2csnn2)NC(=O)N1 | -19 |
| Cc1cccc(Oc2cc(N)cc(Oc3cccc(C)c3)c2)c1 | 8 |
| CN1CCc2ncnc(Nc3ccc4nc(N5CCCC5)sc4c3)c2C1 | 3 |
| Cc1ccc2c(-c3ccccc3)c(-c3nnnn3-c3ccccc3)cnc2c1 | -12 |
| Cc1[nH]n(-c2nc(C(F)(F)F)cc(=O)[nH]2)c(=O)c1CCO | -9 |
| CC(C)n1nccc1NC(=O)c1c[nH]c2ccc(F)cc2c1=O | -4 |
| CC1=NN(c2ccccc2)C(O)C1C(c1ccccc1O)C1C(C)=NN(c2ccccc2)C1O (centres undefined) | 13 |
| CCOC(=O)c1c(C(F)(F)F)[nH]n2c(C(F)F)nnc12 | 8 |
| Cc1nn(Cn2cc(NC(=O)c3ccc(COc4ccc(F)cc4F)o3)cn2)c(C)c1Cl | 7 |
| CNC[C@H]1CCCN1C(=O)c1ccc(-c2noc(C(F)(F)F)n2)cc1 | 12 |
| CCC1CCCCC1N1CCC(NC(=O)C2CCOCC2)CC1 (centres undefined) | -19 |
| N#Cc1cccc(-c2n[nH]c3c2CN(c2ccc(-c4ccccc4)nn2)CC3)c1 | 100 |
| COc1cccc(CNC(=O)Nc2cc3c(cc2N2CCCCC2)n(C)c(=O)n3C)c1 | -6 |
| CCc1ncoc1C(=O)NCC(F)(F)c1cc(F)cc(F)c1 | -19 |
| O=C(N[C@@H](N1CCCCC1)C(Cl)(Cl)Cl)c1cccnc1 | 11 |
| CCc1cccc(NC(=O)N2CCN(C3=CC4=NC[C@H](C)N4C=N3)CC2)c1 | 46 |
| Nc1n[nH]c2ccc(C3OCCCO3)cc12 | 6 |
| Cn1cc(-c2noc(-c3ccc(C#N)cc3)n2)ccc1=O | 12 |

| SMILES | % Inhibition [%] |
| --- | --- |
| O=C(Cn1cnc2cc3c(cc21)OCCCO3)Nc1ccc(F)cc1 | 13 |
| O=C(NCc1ccc2c(c1)OCO2)C(F)(F)C(F)(F)C(F)(F)C(F)(F)C(=O)NCc1ccc2c(c1)OCO2 | -19 |
| CCCC1(CNC(=O)Nc2nc(CS(C)(=O)=O)no2)CC1 | 6 |
| CCc1cc(C(=O)N(CC)c2ccccc2)c2c(C)noc2n1 | -6 |
| COc1ccc(Cl)cc1S(=O)(=O)c1cnc(N2CCOCC2)nc1N | 10 |
| Cc1ccc(C(=O)C[n+]2cc(-c3ccc(-c4ccccc4)cc3)n(C)c2N)cc1 | 4 |
| CCCN(Cc1cnn(C)c1)C(=O)NCc1ccc(C)nc1OC | -20 |
| COc1ccccc1CC(=O)NC[C@H](C)O | 14 |
| Cc1cc(Cl)ccc1S(=O)(=O)N[C@@H](C)C#N | 5 |
| COc1ccc(S(=O)(=O)N2CCC(c3cc(N)on3)CC2)cc1Cl | 40 |
| COc1cc(Cl)c(C)cc1NC(=O)c1nc2cc(C)c(C)cc2n(C)c1=O | -4 |
| Oc1ccc2ccccc2c1-c1nc2ncccn2c1Nc1ccc(Cl)cc1 | 9 |
| CC1CCN(C(=O)Cc2csc(NC(=O)c3cccc(O)c3)n2)CC(C)C1 (centres undefined) | 1 |
| COc1c(Br)cc(Br)cc1C(N)=O | 2 |
| COc1ccc(N=C2NC(=O)CC(=O)N2)cc1 | -3 |
| Cc1cccc(NC(=O)[C@@H](C#N)C(=O)c2ncoc2C)c1 | -17 |
| CC(C)O[C@@H]1CCN(C[C@H](O)c2ccc(C(F)(F)F)cc2)C1 | 42 |
| c1ccc(C2=NN(c3ccc(-c4cc(-c5ccccc5)[n+](-c5ccccc5)c(-c5ccccc5)c4)cc3)[C@H](c3ccccc3)C2)cc1 | 97 |
| COc1ccc(-n2nc(C(=O)N3CCN(c4ccccc4)CC3)c(=O)cc2OC)cc1 | 3 |
| CC(C)(C)CC(C)(C)N1C[C@@H](C(=O)O)CC1=O | -5 |
| COc1cccc(N2CCN(C(=O)c3cc4c(s3)CCN(C(C)=O)C4)CC2)c1 | 3 |
| Brc1ccc2sncc2c1 | 3 |
| CN([C@H]1CCCc2c1cnn2C)S(=O)(=O)CCN1CCCC1 | 15 |
| Cc1c(Cc2c(Cl)cccc2Cl)c(=O)ccn1[C@@H](C)c1ccccc1 | 6 |
| c1ccc(-c2noc(-c3ccc(NC4CCCCC4)nn3)n2)cc1 | 60 |
| Cc1c(C(=O)N2CCCCC2)cccc1N1CCNC1=O | -15 |

| SMILES | % Inhibition [%] |
| --- | --- |
| COC[C@@H](C)CNc1nc(C)cc(C)n1 | -7 |
| COc1cc(N)c(NC(C)=O)cc1Cl | 7 |
| N#Cc1cc(C(=O)Nc2nccc3sccc23)c[nH]1 | -9 |
| N#Cc1ccc(O)c(NC(=O)c2snc(O)c2Cl)c1 | -3 |
| O=C(NCc1cccc(Cl)c1)[C@H]1CCCN(c2nc3cccnc3n(Cc3ccccc3)c2=O)C1 | -7 |
| COc1cc(CC2CN(C(=O)c3cscn3)C2)cc(OC)c1 | 3 |
| O=C(Nc1cccc(Cl)c1)c1ccc(-c2cnc(N3CCCC3)nc2)cc1 | -19 |
| Cc1c(-c2cc(-c3cnn(C)c3C)n(CC(=O)NC3CCCCC3)n2)cnn1C | 4 |
| COc1ccc(S(=O)(=O)N(c2onc(C)c2Cl)S(=O)(=O)c2ccc(OC)c(OC)c2)cc1OC | 4 |
| CC[C@@H](CO)NC(=O)Nc1cccc(C)c1 | 8 |
| COc1ccccc1N1C(=O)C2C(C)NC3(C(=O)N(Cc4ccc(F)cc4)c4ccccc43)C2C1=O (centres undefined) | 12 |
| C[C@H](OC1CCCCCC1)C(=O)Nc1nc(C(N)=O)cs1 | -11 |
| CCn1nccc1C(=O)NC1CCN(c2nnc3ccc(Cl)cn23)CC1 | 10 |
| CC(C)n1[nH]c(=O)c2c(C3CCCCC3)c3sc(=O)[nH]c3nc21 | -12 |
| O=S(=O)(c1ccc(CC(F)(F)F)cc1)N1CCOCC12CCC2 | -1 |
| Cc1ccc(-c2noc(CCC(=O)NCC(C)C)n2)c(=O)n1C(C)C | 3 |
| CC(N)C1CCN(c2cncc(OCC3CCCC3)n2)C1 (centres undefined) | 15 |
| CCCc1cc(-c2nc(-c3ccc(-n4nc(C)cc4N)cc3)no2)n(C)n1 | 88 |
| N#CC1(NC(=O)c2ccncc2Cl)CCCC1 | 11 |
| O=C(NOCc1ccc(F)cc1)NC1CCCCC1 | -10 |
| Cc1ncsc1COC(=O)c1ccnc(N(C)C)c1 | 10 |
| CC1CCC(N2CC(C(=O)N(C3CC3)C(C)C(C)C)CC2=O)CC1 (centres undefined) | 1 |
| C=CCOc1cc(C(=O)N2CCCCC2)cc2occc12 | 11 |
| Cc1c(Cl)cccc1NC(=O)[C@H]1CC(=O)N(c2ccc(OCc3ccccc3)cc2)C1 | 2 |
| CC(=O)c1cc(-c2cc(O)cc(CC[C@H]3CCCCN3)c2)ccc1O | 85 |
| Cc1cc(C)n(S(=O)(=O)c2cccc3cccnc23)n1 | -10 |
